The list shows a part of the results.

First the molecules themselves.
B1: chr5:116443554:116446612:-|three_prime_utr|ENSG00000092421|control|control|control (ssRNA)
RNA: GGGAGUUCUACAGUCCGACGAUCCCGCCAGUGUUACAGCUUUCUGUUGCAGCAGAUAAAUGCCAUGUUGGGCAACUAUGUCAUAGAUUUCUGCUCCUCCUCUCUUUUAAUGAAAUAACGUGACCGUUAACGCAAGUAACUCUUCAACAGAGGAUUGAGCAUCA
B2: chr1:94983078:94983306:-|CDS|ENSG00000172339|control|control|control (ssRNA)
RNA: GGGAGUUCUACAGUCCGACGAUCCCUUGGGAUACUAGGAAUAAAGAAAGUGAUCAUUGUCUACGUUGAAAGCAUCUGCCGUGUAGAAACGUUAUCCAUGUCCGGAAAGAUUCUGUUUCAUCUCUCAGAUUACUUCAUUGUUCACAACAGAGGAUUGAGCAUCA
B3: chr11:62152232:62152344:+|3pUTR|ENSG00000149503|unk|total|mutant (ssRNA)
RNA: GGGAGUUCUACAGUCCGACGAUCUGCUCUGUAAACCGUUGUUUUAAUUCCGCUGAAUGUCCGCAUUUCCGUCUUUGGCAUUUCCGCGUUUGGGAGGCCGAUUAAUAAAGUAUAUUCCUUCAAGCCUGCUGUUGAUACCAUGAACAACAGAGGAUUGAGCAUCA
B4: chr7:73478007:73478118:-|CDS|ENSG00000009954|unk|total|mutant (ssRNA)
RNA: GGGAGUUCUACAGUCCGACGAUCAAAGGCACGCAGAAGAUGACACGAGCCCCACGGAAUUCUGGGGGUACACCCCGGACCUCCCGUAAACCUCAUAAACAUCUGCCUCCUGCAGCCCUACACCUCAUUGCAUACUACAAAGAACAACAGAGGAUUGAGCAUCA
B5: chr12:130875966:130876013:+|3pUTR|ENSG00000132341|msi1_unk|FALSE|overlapping (ssRNA)
RNA: GGGAGUUCUACAGUCCGACGAUCGAUGAGGAUGAUGACCUGUGAGAAUGAAGCUGGAGCCCAGCGUCAGAAGUCUAGUUUUAUAGGCAGCUGUCCUGUGAUGUCAGCGGUGCAGCGUGUGUGCCACCUCAUUAUUAUCUAGCUCAACAGAGGAUUGAGCAUCA
B6: chr7:18026828:18027782:-|CDS|ENSG00000229937|control|control|control (ssRNA)
RNA: GGGAGUUCUACAGUCCGACGAUCUGGAAUCUUUUCUGGCCCAGCCAUUUCUCGCAUCAACACUGCAUGCUUUGAAGCAGUGGUAGUCACCAAUACCAUACCUCAAGAUGAGAAGAUGAAGCAUUGCUCCAAAAUACGAGUAAUCAACAGAGGAUUGAGCAUCA
B7: chr12:6655637:6655878:-|three_prime_utr|ENSG00000111653|control|control|control (ssRNA)
RNA: GGGAGUUCUACAGUCCGACGAUCUCACUUGGUUUCUUCAAAGAUGUCUGUUGGAGCUAUUCCCAUACCCACUGAAGGAUCUGUAGUCUUGUCUUCAUUCUAUGUAGCCAUGUUCAAGGAUGUAACAGACUGGUUUUGAGAUACCAACAGAGGAUUGAGCAUCA
B8: chr18:21869459:21869560:+|3pUTR|ENSG00000101752|msi1|total|mutant (ssRNA)
RNA: GGGAGUUCUACAGUCCGACGAUCUAAAAGAUGGUCUUCCGUGCACGUGUAUCAUUAUAUACACGUUUUAAAGUCAUAUUGCUCCGCUUGUUAAUAAUGAUUCUGCAUGUGUGCUGGGUUUGGGUAAUUCUUUAAAGGAAGUUUCAACAGAGGAUUGAGCAUCA
B9: chr5:138934237:138934351:+|3pUTR|ENSG00000044115|msi1_unk|FALSE|overlapping (ssRNA)
RNA: GGGAGUUCUACAGUCCGACGAUCUUUCCAAGAACAUAGUUUAAGUUGAUUAAAAAUGCUUUUAGAAUGCAGGAGCCUACUUCUAGCUGUAUUUUUUGUAUGCUUAAAUAAAAAUAAAAAUUCAUAACCAAAGAGAAUCCCACACAACAGAGGAUUGAGCAUCA
B10: ENSG00000198589:be:win_8401|CDS|ENSG00000198589|bound_else_gene|NA|bound_elsewhere_windowed (ssRNA)
RNA: GGGAGUUCUACAGUCCGACGAUCAAGCAGCUCUUUGCCUAUCCAGGAUGUGACGCUGGAAUCCGGGCCAUGGCGCUGUCUUACGACCAGAGGUGCAUCAUUUCUGGCAUGGCUUCAGGAAGCAUUGUGCUAUUUUACAACGACCAACAGAGGAUUGAGCAUCA
B11: chr2:30159184:30159288:+|3pUTR|ENSG00000119801|unk|FALSE|bound_elsewhere (ssRNA)
RNA: GGGAGUUCUACAGUCCGACGAUCAAAAUCUGGGCUGUUAGAGUGAAAAAGUGUGUUUUAUGUCAAUUGUGAAAGGAAAAUGUUAGGAGUAUGGUUUUUAAACUUGGGCUUCAUUUUAAACUUUUUUUUUUAAACCCAGUUAUUCAACAGAGGAUUGAGCAUCA
B12: ENSG00000198589:be:win_8051|CDS|ENSG00000198589|bound_else_gene|NA|bound_elsewhere_windowed (ssRNA)
RNA: GGGAGUUCUACAGUCCGACGAUCGCCAUGACUAUGAGGUCACAUGUGCUGCGGUGUGUGCGGAGCUAGGCCUGGUGUUGAGUGGUUCACAAGAAGGACCAUGUCUCAUACAUUCCAUGAAUGGAGACUUGUUGAGGACCUUGGCAACAGAGGAUUGAGCAUCA
B13: chr12:79773885:79773986:-|3pUTR|ENSG00000058272|msi1|FALSE|unique (ssRNA)
RNA: GGGAGUUCUACAGUCCGACGAUCGGUUAUUUAUUCUUUGUAUCUAAAACUGAACAGCUACUGUGCUAUAUUGAUUUUAUUGGUAGUAUUGAGCAGACCUUGUUUCUGCAUGAAACUAGUUGCAAAACCCACUAUUUUGGAAAUCAACAGAGGAUUGAGCAUCA
B14: chr2:182778012:182778113:+|3pUTR|ENSG00000077232|msi1|total|mutant (ssRNA)
RNA: GGGAGUUCUACAGUCCGACGAUCUAAAGAUAUAUGUGUUCAUGUAUUUUCUGAAAUUGCUUUCACCGAAAUUUUCCCACUGACCGUUGAUUUUUGAGGCAUCUAAUAUUUACAUAUUUGCCUUCUGAACUUUGUUUUGACCUGCAACAGAGGAUUGAGCAUCA

In this assay the target is T1, UNK ZnF1-6 (called full-length) (human, UniProt Q9C0B0 30-357).
T1 sequence: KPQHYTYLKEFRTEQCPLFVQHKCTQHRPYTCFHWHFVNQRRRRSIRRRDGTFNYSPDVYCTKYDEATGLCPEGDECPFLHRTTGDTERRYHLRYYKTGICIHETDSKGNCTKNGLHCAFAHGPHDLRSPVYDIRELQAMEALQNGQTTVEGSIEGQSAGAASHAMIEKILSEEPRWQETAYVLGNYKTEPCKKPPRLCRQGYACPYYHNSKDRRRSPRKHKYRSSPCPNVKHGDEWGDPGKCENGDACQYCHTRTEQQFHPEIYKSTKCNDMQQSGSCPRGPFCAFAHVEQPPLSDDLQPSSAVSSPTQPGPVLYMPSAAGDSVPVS
As to the kind of experiment: nsRBNS (natural sequence RNA bind-n-seq); RBNS binding buffer (assumed for nsRBNS): 25 mM Tris pH 7.5, 150 mM KCl, 3 mM MgCl2, 0.01% Triton X-100, 500 ug/ml BSA, 20 U/ml SUPERase-In, 4 C; UNK is unkempt and MSI1 is Musashi-1; names of the RNAs are library labels; protein concentration not given here; high values mean tight binding.
Consider B1, for which the binding signal came to 0.437 enrichment R. Regarding B2, the binding signal came out at 0.241 enrichment R. To B3 belongs 0.494 enrichment R. As to B4, the binding signal turned out to be 0.485 enrichment R.

B5 yielded a binding signal of 0.772 enrichment R. Turning to B6, the binding signal turned out to be 0.579 enrichment R. To B7 belongs 0.291 enrichment R; to B8, 0.416 enrichment R. B9: the binding signal was 0.932 enrichment R. In turn, B10 showed a binding signal of 0.545 enrichment R. As for B11, the binding signal was found to be 1.13 enrichment R. In turn, B12 gave a binding signal of 0.748 enrichment R. B13: the binding signal stood at 0.729 enrichment R. To B14 belongs 0.382 enrichment R.

Values taken from paper PMC12136788.
